# Results published in the supplement of paper PMC8728848.
# Some of the results follow.
# B1: Surfactant Protein D (Human); Neck + Carbohydrate Recognition Domain (NCRD) (Homo sapiens) (protein)
# chain: MLLFLLSALVLLTQPLGYLEAEMKTYSHRTMPSACTLVMCSSVESGLPGRDRDGREGPRGEKGDPGLPGAAGQAGMPGQAGPVGPKGDNGSVGEPGPKGDTGPSGPPGPPGVPGPAGREGALGKQGNIGPQGKPGPKGEAGPKGEVGAPGMQGSAGARGLAGPKGERGVPGERGVPGNTGAAGSAGAMGPQGSPGARGPPGLKGDKGIPGDKGAKGESGLPDVASLRQQVEALQGQVQHLQAAFSQYKKVELFPNGQSVGEKIFKTAQFVKPFTEAQLLCTQAGGQLASPRSAAENAALQQLVVAKNEAAFLSMTDSKTEGKFTYPTGESLVYSNWAPGEPNDDGGSEDCVEIFTNGKWNDKACGEKRLVVCEF
# What was measured:
# Experiment in all cases: glycan array binding signal (z-score within array); higher = stronger binding
# Conditions in all cases: glycan notation: IUPAC condensed, linker removed; mutation: R343K
# [1] = target: Gal3S(b1-4)GlcNAc6S
# In short: (§1)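 From the Consortium for Functional Glycomics database, 3228 arrays were curated, keeping only those whose protein sequence was available. Binding is given as a within-array Z-score averaged across arrays sharing a protein sequence and across linkers. Negative Z-scores can be read as non-binding.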
# [2] = target: Gal3S(b1-4)[Fuc(a1-3)]Glc
# In short: as §1
# [3] = target: Gal3S4S(b1-4)GlcNAc
# In short: as §1
# [4] = target: Gal3S6S(b1-4)GlcNAc
# In short: as §1
# [5] = target: Gal3S6S(b1-4)GlcNAc6S
# In short: as §1
# [6] = target: Gal4S(b1-4)GlcNAc
# In short: as §1
# [7] = target: Gal4S6S(b1-4)GlcNAc
# In short: as §1
# [8] = target: Gal6S(b1-4)Glc
# In short: as §1
# [9] = target: Gal6S(b1-4)Glc6S
# In short: as §1
# [10] = target: Gal6S(b1-4)GlcNAc
# In short: as §1
# [11] = target: Gal6S(b1-4)GlcNAc6S
# In short: as §1
# [12] = target: GalNAc(a1-3)Gal
# In short: as §1
# [13] = target: GalNAc(a1-3)GalNAc
# In short: as §1
# [14] = target: GalNAc(b1-3)Gal
# In short: as §1
# [15] = target: GalNAc(b1-3)Gal(a1-4)Gal(b1-4)GlcNAc
# In short: as §1
# [16] = target: GalNAc(b1-3)GalNAc
# In short: as §1
# [17] = target: GalNAc(b1-4)GlcNAc
# In short: as §1
# [18] = target: Glc(a1-4)Glc
# In short: as §1
# [19] = target: Glc(a1-6)Glc(a1-6)Glc
# In short: as §1
# [20] = target: Glc(b1-4)Glc
# In short: as §1
# [21] = target: Glc(b1-6)Glc
# In short: as §1
# [22] = target: GlcA(b1-3)Gal
# In short: as §1
# [23] = target: GlcA(b1-3)GlcNAc
# In short: as §1
# [24] = target: GlcA(b1-6)Gal
# In short: as §1
# [25] = target: GlcNAc(a1-3)Gal(b1-4)GlcNAc
# In short: as §1
# [26] = target: GlcNAc(a1-6)Gal(b1-4)GlcNAc
# In short: as §1
# [27] = target: GlcNAc(b1-2)Gal(b1-3)GalNAc
# In short: as §1
# [28] = target: GlcNAc(b1-2)Man(a1-3)[GlcNAc(b1-2)Man(a1-6)]Man(b1-4)GlcNAc(b1-4)GlcNAc
# In short: as §1
# [29] = target: GlcNAc(b1-3)Gal
# In short: as §1
# [30] = target: GlcNAc(b1-3)Gal(b1-3)GalNAc
# In short: as §1
# [31] = target: GlcNAc(b1-3)Gal(b1-4)Glc
# In short: as §1
# [32] = target: GlcNAc(b1-3)Gal(b1-4)GlcNAc
# In short: as §1
# [33] = target: GlcNAc(b1-3)Gal(b1-4)GlcNAc(b1-3)Gal(b1-4)GlcNAc
# In short: as §1
# [34] = target: GlcNAc(b1-3)GalNAc
# In short: as §1
# [35] = target: GlcNAc(b1-3)Man
# In short: as §1
# [36] = target: GlcNAc(b1-3)[GlcNAc(b1-4)][GlcNAc(b1-6)]GlcNAc
# In short: as §1
# [37] = target: GlcNAc(b1-3)[GlcNAc(b1-6)]Gal(b1-4)GlcNAc
# In short: as §1
binder,measurement,setting,value
B1,glycan array binding signal (z-score),[1],-0.153
same,glycan array binding signal (z-score),[2],-0.143
same,glycan array binding signal (z-score),[3],-0.145
same,glycan array binding signal (z-score),[4],-0.153
same,glycan array binding signal (z-score),[5],-0.155
same,glycan array binding signal (z-score),[6],-0.16
same,glycan array binding signal (z-score),[7],-0.155
same,glycan array binding signal (z-score),[8],-0.151
same,glycan array binding signal (z-score),[9],-0.151
same,glycan array binding signal (z-score),[10],-0.151
same,glycan array binding signal (z-score),[11],-0.159
same,glycan array binding signal (z-score),[12],-0.156
same,glycan array binding signal (z-score),[13],-0.159
same,glycan array binding signal (z-score),[14],-0.156
same,glycan array binding signal (z-score),[15],-0.146
same,glycan array binding signal (z-score),[16],-0.157
same,glycan array binding signal (z-score),[17],-0.156
same,glycan array binding signal (z-score),[18],-0.149
same,glycan array binding signal (z-score),[19],-0.146
same,glycan array binding signal (z-score),[20],-0.153
same,glycan array binding signal (z-score),[21],0.704
same,glycan array binding signal (z-score),[22],-0.158
same,glycan array binding signal (z-score),[23],-0.149
same,glycan array binding signal (z-score),[24],-0.146
same,glycan array binding signal (z-score),[25],-0.148
same,glycan array binding signal (z-score),[26],-0.15
same,glycan array binding signal (z-score),[27],-0.159
same,glycan array binding signal (z-score),[28],-0.144
same,glycan array binding signal (z-score),[29],-0.153
same,glycan array binding signal (z-score),[30],-0.145
same,glycan array binding signal (z-score),[31],-0.149
same,glycan array binding signal (z-score),[32],-0.153
same,glycan array binding signal (z-score),[33],-0.145
same,glycan array binding signal (z-score),[34],-0.152
same,glycan array binding signal (z-score),[35],-0.151
same,glycan array binding signal (z-score),[36],-0.156
same,glycan array binding signal (z-score),[37],-0.156
